This is one part of the list. Further columns of the screen follow, without active or inactive calls. The list favours compounds with an active or inconclusive main result.

This assay in a line: inhibitors of triacylglycerol accumulation, primary screen, cell-based, uHTS, fluorescence, H9c2 (AID 651582). Particulars: H9c2 cells, Nile Red lipid (TAG) fluorescence; measured here:; at 12.5 µM; cells loaded with 200 µM oleic acid.
`Cn1ncc2c(O/N=C(\N)c3ccc(C(F)(F)F)cc3)ncnc21`: the DAPI nuclei signal change (viability), lower = more cytotoxic was -39.4%.
With `COc1ccccc1-n1cnc2cc(NCc3cccs3)ccc21`, the DAPI nuclei signal change (viability), lower = more cytotoxic is -21.5%.
With `O=C1NC(c2cccc3ccccc23)Nc2ccc(Cl)cc21` (centres undefined) the figure was -31.7%; with `CCC1(O)CC2CN(CCc3c([nH]c4ccccc34)C(C(=O)OC)(c3cc4c(cc3OC)N(C=O)C3C(O)(C(=O)OC)C(OC(C)=O)C5(CC)C=CCN6CCC43C65)C2)C1` (centres undefined), -42.2%.
As for `COc1ccc(Cc2nnc(SCC(=O)Nc3ccc(C)cc3)n(N)c2=O)cc1`, the DAPI nuclei signal change (viability), lower = more cytotoxic came to 1.62%.
`CCCCCCSc1ccc([C@H]2N[C@@](CC(C)C)(C(=O)OC)[C@H]3C(=O)N(C)C(=O)[C@@H]23)cc1OC`: the DAPI nuclei signal change (viability), lower = more cytotoxic was -39.7%.
Consider `O=C(C[C@H]1C[C@H](C(=O)N2CCCCC2)[C@@]2(CCc3ccccc3)c3[nH]c4cc(-c5ccco5)ccc4c3CCN2C1=O)NCc1cccc(C(F)(F)F)c1`, for which the DAPI nuclei signal change (viability), lower = more cytotoxic came out at 11.8%.
`OCCCn1c(C2CCCN2c2nc(-c3ccc(F)cc3)cs2)nc2cc(C(F)(F)F)ccc21` (centres undefined): the DAPI nuclei signal change (viability), lower = more cytotoxic is -11%.
On to `Cc1cc(C)c2nc(SCC(=O)N3CC(=O)Nc4ccccc43)c(C#N)cc2c1`, for which the DAPI nuclei signal change (viability), lower = more cytotoxic is -21.1%.
Take `O=C(NCC(c1ccc(F)cc1)N1CCOCC1)c1ccc([N+](=O)[O-])o1` (centres undefined): the DAPI nuclei signal change (viability), lower = more cytotoxic is -48%.
With `CCOc1ccc(C2=Nc3ccccc3C(c3ccc(N4CCOCC4)cc3)=NN2)cc1`, the DAPI nuclei signal change (viability), lower = more cytotoxic was -1.02%.
Turning to `CC(C)n1cc(/C=C2/NC(=O)N(c3cccc(Cl)c3)C2=O)c2ccccc21`, the DAPI nuclei signal change (viability), lower = more cytotoxic is -16.9%.
Take `COC(=O)/C=C/c1ccccc1S(=O)(=O)N(Cc1ccccc1)Cc1ccco1`: the DAPI nuclei signal change (viability), lower = more cytotoxic is -39.7%.
For `CS(=O)(=O)c1ccc(C(=O)OCC(=O)NCc2cccs2)cc1[N+](=O)[O-]`, the DAPI nuclei signal change (viability), lower = more cytotoxic was -28.7%.
On to `COc1cc(C#Cc2c(-c3cncn3C)n(C)c3ccc(-c4cc(OC)c(OC)c(OC)c4)cc23)cc(OC)c1`, for which the DAPI nuclei signal change (viability), lower = more cytotoxic was determined as 63.7%.
Regarding `Cc1ccc(CNC(=O)c2ccc(N3CCC4(CC3)CC(c3ccccc3)=NO4)c(NC(=O)c3ccc(Br)cc3)c2)cc1`, the DAPI nuclei signal change (viability), lower = more cytotoxic amounted to 1.97%.
With `N#C/C(=C\Nc1ccc2cn[nH]c2c1)c1nc(-c2ccc(Cl)cc2)cs1` the figure was -48.9%.
Take `O=C(Nc1c2ccccc2nc2ccccc12)C(Cl)(Cl)Cl`: the DAPI nuclei signal change (viability), lower = more cytotoxic is -14.7%.
With `Cc1ccc2c(c1)c1c(n2CC(O)CNC2CCCC2)CCCC1` (centres undefined) the figure was -46.5%; with `O=C(Nc1ccc([N+](=O)[O-])cn1)c1cc(-c2cccc(Cl)c2)nc2ccccc12`, -15.3%; with `CCN1CCN(c2cc(C)c3cc(NC(=O)c4ccc(Br)o4)ccc3n2)CC1`, -0.256%.
As for `Nc1ccccc1C#Cc1ccccc1`, the DAPI nuclei signal change (viability), lower = more cytotoxic was -10.8%.
Consider `O=C(CCC(=O)N1CCOc2ccc(Cl)cc21)NCCCN1CCC(Cc2ccccc2)CC1`, for which the DAPI nuclei signal change (viability), lower = more cytotoxic is -36.1%.
As to `Oc1cc(NCCN2CCOCC2)cc2cccnc12`, the DAPI nuclei signal change (viability), lower = more cytotoxic is -29.8%.
As for `Cc1cc(N2CCOCC2)nc2ccc(NC(=O)C3CCC(C)CC3)cc12` (centres undefined), the DAPI nuclei signal change (viability), lower = more cytotoxic stood at 22.5%.
Turning to `CCCCNC(=O)C(=O)Nc1ccc2c(c1)N(S(=O)(=O)c1cccs1)CCC2`, the DAPI nuclei signal change (viability), lower = more cytotoxic is -47.2%.
As for `CC1(C(=O)Nc2ccc3c(c2)OCO3)Cc2c(-c3cccc(C(N)=O)c3)ccnc2O1` (centres undefined), the DAPI nuclei signal change (viability), lower = more cytotoxic is -29.1%.
For `C=CC[C@@H](CC(=O)N(CCO)Cc1ccccc1)C(=O)N[C@H](COC(=O)[C@@H](CC=C)Cc1ccc(F)cc1)Cc1c[nH]c2ccccc12`, the DAPI nuclei signal change (viability), lower = more cytotoxic is -4.16%.
As for `O=C1N=C(N2CCOCC2)S/C1=C/c1ccc(-c2ccc(F)cc2)o1`, the DAPI nuclei signal change (viability), lower = more cytotoxic was -38.7%.
Take `COCCNc1nc(-c2ccccc2CO)c2sc(-c3ccccc3)cc2n1`: the DAPI nuclei signal change (viability), lower = more cytotoxic worked out at 34.6%.
Regarding `O=C(CCl)N(CCCNC(=O)C(F)(F)F)c1ccc([N+](=O)[O-])cc1`, the DAPI nuclei signal change (viability), lower = more cytotoxic was -11.6%.
As for `O=C(Nc1nc2nc(-c3ccccc3)cc(-c3ccccc3)n2n1)c1ccco1`, the DAPI nuclei signal change (viability), lower = more cytotoxic was 8.86%.
As for `O=C(Nc1ccc(S(=O)(=O)N2CCOCC2)cc1)c1ccc([N+](=O)[O-])s1`, the DAPI nuclei signal change (viability), lower = more cytotoxic is -49.5%.
In the case of `O=C(Nc1cccc(-c2csc(Nc3ccc(Cl)cc3)n2)c1)c1cc([N+](=O)[O-])cc(C(F)(F)F)c1`, the DAPI nuclei signal change (viability), lower = more cytotoxic is -13.6%.
For the compound `O=C(Nc1ccccc1)c1nc[nH]c1C(=O)NCCCCCCNC(=O)c1[nH]cnc1C(=O)Nc1ccccc1`, the DAPI nuclei signal change (viability), lower = more cytotoxic stood at 10.6%.
With `O=C(NC1CCCC1)C(c1c[nH]c2ccccc12)N(C(=O)Cn1nnc(-c2ccc(Cl)cc2)n1)c1ccccc1` (centres undefined) the figure was -20.2%; with `O=C(N/N=C/c1cc(Br)ccc1O)c1ccncc1`, -16.2%.
The figure for `CCCC(=O)Nc1ccc2nc(SCC(=O)Nc3ccc(N4CCOCC4)c(Cl)c3)sc2c1` is -9.64%; for `O=C(NCCCCCCCN1CCCCCCC1)C(C1CCCCC1)C1CCCCC1` it is -31.3%.
For the compound `Cc1ccc(C2C(C=Nc3c(C)n(C)n(-c4ccccc4)c3=O)=C(c3ccccc3)Oc3ccccc32)cc1` (centres undefined), the DAPI nuclei signal change (viability), lower = more cytotoxic was -11.3%.
With `Cc1c(P(=S)(c2ccccc2)c2ccccc2)[n+]2ccccc2n1C/C=C/c1ccccc1` the figure was -14.7%; with `O=C(COc1ccc(Br)cc1CNC1CCCCC1)NCCc1ccccc1`, -26.1%; with `Oc1ccccc1C(Nc1nccs1)c1ccc2cccnc2c1O` (centres undefined), -21.8%.
`CC(C)c1ccc2c(c1)C(c1ccc(N3CCOCC3)cc1)=NNC(c1cccs1)=N2`: the DAPI nuclei signal change (viability), lower = more cytotoxic is -13.1%.

For the origin of these results see PubChem BioAssay AID651582 (Sanford-Burnham Center for Chemical Genomics, 2012).
